Paper PMC4503722, “Novel Phenotypic Outcomes Identified for a Public Collection of Approved Drugs from a Publicly Accessible Panel of Assays” (PLoS ONE, 2015)

Assays:
Experiment in all cases: cells
Type in all cases: cell-based
NCI-H716 cells = settings: Homo sapiens, NCI-H716, read-out: GLP 1 Secretion
SW480 = settings: Homo sapiens, SW480, read-out: Basal_Viability ATP SW480
INS-1E cells = settings: Rattus norvegicus, read-out: Insulin Secretion
DLD-1 = settings: Homo sapiens, DLD-1, read-out: Basal_Viability ATP DLD-1
[1] = system: HCT116 cells treated with a GSK3β inhibitor; settings: Homo sapiens, HCT-116, read-out: GSK3b inh pretreated_Viability ATP HCT116
HCT116 = settings: Homo sapiens, HCT-116, read-out: Basal_Viability ATP HCT116
[2] = system: nuclear β-catenin in C2C12 cells; settings: Mus musculus, C2C12, read-out: Wnt Pathway
[3] = system: endothelial tube formation in co-cultures of ECFCs and ADSCs treated with VEGF; settings: Homo sapiens, read-out: Anti-Angiogenesis

Compound	EC50 (NCI-H716 cells) [µM]	IC50 (SW480) [µM]	EC50 (INS-1E cells) [µM]	IC50 (DLD-1) [µM]	IC50 [1] [µM]	IC50 (HCT116) [µM]	EC50 [2] [µM]	IC50 [3] [µM]
CCN(CC)CCOc1ccc(C(=C(Cl)c2ccccc2)c2ccccc2)cc1 [Clomiphene]	> 20	1.94	> 10	1.84	2.61	–	–	–
Clc1ccc(COC(Cn2ccnc2)c2ccc(Cl)cc2Cl)cc1 (centres unmarked) [Econazole]	4.29	3.16	> 10	3.81	4.44	4.39	> 10	–
Cc1ccccc1C(OCCN(C)C)c1ccccc1 (centres unmarked) [Orphenadrine]	> 10	> 20	–	> 20	> 20	> 20	> 10	> 10
COc1cc2c(c(OC)c1OC)-c1ccc(OC)c(=O)cc1[C@@H](NC(C)=O)CC2 [colchicine]	–	0.338	–	0.336	0.0667	0.164	–	–
